Some of the results follow. Cleavage of a single-stranded DNA pool by Rep nickase domains was read by sequencing (3 µM enzyme, 1 h, 37 °C); shown is the middle of each 90-letter strand. A value is the log2 ratio of uncut reads to the pool without enzyme; the lower, the more was cut; hits are not called. Counts are relative to all reads; uncut strands gain when others are lost, and binding without cutting may add a little.
How the values were obtained:
Experiment in all cases: uncleaved DNA left, log2 of reads against the no-enzyme library (log2 ratio); higher = less cleavage (more negative = more Rep cleavage of the k-mer); sequences stand for … in CTCGTCCG…ACCGGAGA
[1] = tested on: T1, Rep nickase domain of Muscovy duck circovirus
T1 sequence (residues 1-111, tag not shown): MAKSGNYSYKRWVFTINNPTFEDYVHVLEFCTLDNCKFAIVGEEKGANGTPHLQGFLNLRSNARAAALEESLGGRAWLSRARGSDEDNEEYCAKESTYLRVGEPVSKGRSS
Experimental: (§1)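 A pool of 90-nt single-stranded DNAs with seven random bases just before the constant AC of the nick site (name = the seven bases) was cut by 3 µM recombinant His6-SUMO-tagged Rep nickase domain (300 nM DNA, 50 mM HEPES pH 8.0, 50 mM NaCl, 1 mM MnCl2, 1 h, 37 °C, three replicates). Uncut DNA was amplified and sequenced.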

[2] = tested on: T2, Rep nickase domain of banana bunchy top virus
T2 sequence (residues 1-94, tag not shown): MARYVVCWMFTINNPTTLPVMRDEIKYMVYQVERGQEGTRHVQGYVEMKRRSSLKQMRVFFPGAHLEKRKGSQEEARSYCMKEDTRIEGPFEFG
Experimental: as §1

[3] = tested on: T3, Rep nickase domain of cabbage leaf curl virus
T3 sequence (residues 1-116, tag not shown): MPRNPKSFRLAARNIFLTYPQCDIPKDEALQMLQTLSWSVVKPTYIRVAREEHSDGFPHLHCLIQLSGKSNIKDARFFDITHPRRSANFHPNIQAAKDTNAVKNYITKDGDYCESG
Experimental: as §1

[4] = tested on: T4, Rep nickase domain of chickpea chlorotic dwarf virus
T4 sequence (residues 1-124, tag not shown): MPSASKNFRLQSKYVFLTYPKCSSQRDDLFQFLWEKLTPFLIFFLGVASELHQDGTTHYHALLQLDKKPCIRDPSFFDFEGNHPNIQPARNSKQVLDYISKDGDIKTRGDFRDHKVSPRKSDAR
Experimental: as §1

[5] = tested on: T5, Rep nickase domain of faba bean necrotic yellows virus
T5 sequence (residues 1-98, tag not shown): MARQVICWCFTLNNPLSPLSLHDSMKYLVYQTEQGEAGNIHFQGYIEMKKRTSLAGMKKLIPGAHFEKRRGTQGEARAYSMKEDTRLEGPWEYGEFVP
Experimental: as §1

[6] = tested on: T6, Rep nickase domain of maize striate mosaic virus
T6 sequence (residues 1-117, tag not shown): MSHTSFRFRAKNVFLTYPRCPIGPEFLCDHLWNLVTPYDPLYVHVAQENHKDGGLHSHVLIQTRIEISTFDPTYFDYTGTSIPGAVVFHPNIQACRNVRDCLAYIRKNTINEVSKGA
Experimental: as §1

[7] = tested on: T7, Rep nickase domain of porcine circovirus 2
T7 sequence (residues 2-116, tag not shown): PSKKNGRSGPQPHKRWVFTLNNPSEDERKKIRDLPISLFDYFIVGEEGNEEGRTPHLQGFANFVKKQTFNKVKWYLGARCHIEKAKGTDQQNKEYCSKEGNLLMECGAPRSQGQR
Experimental: as §1

[8] = tested on: T8, Rep nickase domain of tomato golden mosaic virus
T8 sequence (residues 1-124, tag not shown): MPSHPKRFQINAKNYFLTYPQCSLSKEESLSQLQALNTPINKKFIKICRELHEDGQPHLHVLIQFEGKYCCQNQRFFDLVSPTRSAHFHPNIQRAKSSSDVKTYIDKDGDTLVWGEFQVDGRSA
Experimental: as §1

[9] = tested on: T9, Rep nickase domain of tomato yellow leaf curl virus
T9 sequence (residues 1-136, tag not shown): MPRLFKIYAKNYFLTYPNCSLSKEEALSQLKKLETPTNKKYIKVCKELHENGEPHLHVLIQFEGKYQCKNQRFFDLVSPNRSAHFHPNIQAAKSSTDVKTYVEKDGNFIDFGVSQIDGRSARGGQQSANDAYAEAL
Experimental: as §1

[10] = tested on: T10, Rep nickase domain of wheat dwarf virus
T10 sequence (residues 1-137, tag not shown): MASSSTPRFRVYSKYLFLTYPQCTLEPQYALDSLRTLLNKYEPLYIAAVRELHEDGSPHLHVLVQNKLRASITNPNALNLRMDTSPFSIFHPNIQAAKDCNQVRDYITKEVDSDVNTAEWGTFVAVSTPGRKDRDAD
Experimental: as §1

Sequence | uncleaved DNA left (log2) [1] | uncleaved DNA left (log2) [2] | uncleaved DNA left (log2) [3] | uncleaved DNA left (log2) [4] | uncleaved DNA left (log2) [5] | uncleaved DNA left (log2) [6] | uncleaved DNA left (log2) [7] | uncleaved DNA left (log2) [8] | uncleaved DNA left (log2) [9] | uncleaved DNA left (log2) [10]
CTAGCAT | -0.067 | 0.0477 | -0.0145 | -0.305 | 0.0044 | -0.556 | 0.0253 | -0.00484 | -0.0559 | 0.0304
AGGCTAC | 0.0827 | 0.0223 | 0.0501 | -0.931 | 0.0442 | 0.289 | -0.03 | -0.000798 | 0.0453 | 0.0649
GGCACCA | 0.0705 | 0.0937 | 0.617 | 1.2 | -0.0124 | 1.8 | 0.0991 | 0.0511 | 0.0945 | 0.143
TAGTTGA | 0.019 | 0.0923 | 0.059 | -0.467 | 0.153 | -0.651 | -2.78 | 0.0446 | 0.0975 | 0.0967
TTACACC | -0.111 | -0.192 | -0.0122 | -1.55 | -0.11 | -0.314 | -0.304 | -0.196 | -0.135 | -0.0712
AGTTTTA | -0.0717 | -0.0186 | -0.0511 | -1.83 | 0.105 | 0.725 | -0.815 | 0.134 | 0.109 | -0.00218
AGTTCCT | -0.447 | -0.151 | 0.0748 | -1.26 | -0.0139 | 0.217 | -3.3 | -0.0199 | 0.0668 | 0.0789
AACCCCT | -0.11 | -0.0594 | -0.512 | -2.75 | 0.0272 | -0.391 | -0.948 | -0.23 | 0.0429 | -0.133
TATCCGA | 0.0113 | 0.0383 | -0.151 | -0.469 | -0.109 | -0.958 | 0.00643 | -0.114 | -0.0225 | -0.0182
ACTGCCC | 0.103 | -0.0275 | 0.0638 | 0.441 | 0.00492 | 0.229 | 0.0304 | 0.0797 | 0.0341 | -0.00705
GTATACT | -2.08 | -0.0648 | -0.0363 | 0.215 | 0.0084 | 1.66 | -1.87 | -0.0159 | 0.0597 | -0.0336
ACCGACC | -0.134 | -0.164 | -0.278 | 0.119 | -0.1 | -0.853 | 0.0643 | -0.135 | -0.114 | -0.163
GAGTTCA | 0.0408 | 0.00552 | 0.204 | -0.366 | -0.119 | 1.09 | -2.55 | 0.136 | 0.278 | 0.141
AGAGTGA | -0.0512 | 0.0343 | -0.00559 | 0.249 | -0.0192 | -0.128 | 0.052 | -0.004 | -0.0244 | -0.0182
GATTCTT | -2.87 | -3 | 0.00512 | -1.74 | -0.341 | 1.01 | -3.35 | -0.315 | 0.0244 | -0.0923
GTGGCCA | 0.0258 | 0.192 | 0.484 | 1.28 | -0.109 | 1.94 | 0.144 | 0.0869 | 0.128 | 0.0523
TGTCGTC | 0.033 | 0.0661 | 0.0939 | 0.132 | -0.0548 | -0.204 | 0.0978 | 0.00944 | -0.0067 | -0.0319
CCTAAGA | -0.137 | -0.0506 | -0.227 | -0.236 | -0.0822 | -1.13 | 0.083 | 0.0129 | -0.0519 | -0.18
TGTCGCG | 0.0679 | -0.0141 | -0.717 | 0.611 | 0.117 | -0.632 | 0.151 | -0.0552 | -0.023 | -0.138
TTCGGGA | 0.0716 | -0.0438 | 0.402 | 0.51 | -0.183 | 0.66 | 0.0674 | 0.0232 | 0.032 | 0.00999
CCGTGTA | -0.0101 | -0.0524 | 0.151 | -0.286 | 0.16 | 0.00466 | -0.255 | 0.0772 | 0.0408 | 0.00781
CTAAAAT | -0.0621 | -0.133 | -0.0371 | -1.03 | -0.215 | -0.605 | -0.139 | -0.166 | -0.0896 | -0.0238
GTACTTG | -0.0459 | -0.133 | -0.00598 | -0.0291 | -0.0299 | 0.307 | 0.00315 | -0.0286 | -0.0378 | -0.0658
CGTGCGT | -0.152 | -0.248 | -0.85 | -0.678 | -0.0826 | -1.06 | -0.0383 | -0.18 | -0.118 | -0.25
TATAGCA | 0.0143 | -0.0621 | -0.48 | -1.93 | 0.00516 | -1.15 | -0.225 | -0.109 | 0.0812 | 0.00344
AAATCCA | -0.374 | -0.0257 | -1.84 | -2.44 | -0.0272 | -1.16 | -1.27 | -0.337 | -0.00833 | -0.847
CGCGCCG | 0.0628 | -0.132 | -0.563 | -0.376 | -0.044 | -0.561 | 0.0845 | -0.203 | -0.134 | -0.0921
CCGAAAT | -0.0811 | -0.0402 | 0.0516 | -0.263 | 0.0559 | -0.0309 | -0.118 | -0.104 | 0.0572 | 0.13
AATTCGA | 0.0948 | -0.0377 | -0.69 | -0.818 | 0.00422 | -1.15 | 0.0852 | -0.0517 | 0.003 | -0.0659
TACTACA | -1.93 | -0.364 | -1.93 | -3.16 | -0.248 | -0.467 | -3.51 | -0.721 | -0.047 | -1.28
